In the RNAGym collection of RNA variant scans (doi:10.7554/elife.90254):
The source gives no read counts; variants with many changes may rest on few reads.

B1: OR4K15 (parent)
chain: GUUAACGGUCAUAGGCCAUGGAAACUAGGAGCACCAUUUCGCUGCCAGUGAAGAAAUGAACAAAGAAAAUCUGGGCCAGGCAGGCAUCAAAAGAAAUAGUCUUGCGCUCAACCAGAAAGUCUGUAAUCAUUUUAAGGGUA

Variants of: B1
Test: self-cleavage, relative activity (ratio to wild type); higher = more cleavage; in vitro, sequencing; the parent is a self-cleaving ribozyme

| Variant | self-cleavage |
| --- | --- |
| C16U A47G A90G U124C | 0.51 |
| C16U A89G A91G | 1.29 |
| C16U C61U A135G | 1.67 |
| C16U G83A U122C | 0.97 |
| C16U U19A A27U A78G | 0.07 |
| C16U U19C A56G A116G | 1.24 |
| C16U U19C A60G | 2.08 |
| C16U U19G U43C A111G | 0.12 |
| C16U U39C A59C U87A | 1.08 |
| C16U U72A U132C | 0.46 |
| C17A A22G A117G | 0.83 |
| C17A A23G A51G A82G U133C | 0.72 |
| C17A G21A U103A A114G A117G | 0.04 |
| C17A U39C U49C A51G A66G U70C A90G A111G | 0 |
| C17G U19C U122C | 0.22 |
| C17U A23G U26C A47G A94G U124C | 0.61 |
| C17U A24G U39C C76U A90G U97A U120C | 0.13 |
| C17U A24U A69G C85U A94G A96U U132C | 0.38 |
| C17U A27G A55G U72A A111G | 0.02 |
| C17U A33G U49A U72G | 0.12 |
| C17U A51G A92G | 1.4 |
| C17U A63G A82G | 0.55 |
| C17U A66G A94G | 0.8 |
| C17U A86G U100C U122C | 1.65 |

| Variant | self-cleavage |
| --- | --- |
| C17U C107U A125G U127C | 0.01 |
| C17U U37G U39C | 0.76 |
| C17U U38C U49C A66U A68G A78U U97G | 0.12 |
| C17U U49G A55G A56G | 0.86 |
| A18C A54G A116C | 0.09 |
| A18C A54U A91G A135G | 1.43 |
| A18C A60G A63G A78C A94G A117G | 0.11 |
| A18C A69G U70A | 0.61 |
| A18C G48C A82G A126G | 0.21 |
| A18C U26C U43C | 1.33 |
| A18C U37C A111U | 0.05 |
| A18C U49A A66G | 0.94 |
| A18C U49C A60G | 0.67 |
| A18C U49C A82G | 0.48 |
| A18C U102C U120C | 1.32 |
| A18G A22G A56U | 0.57 |
| A18G A22G A90G | 1.03 |
| A18G A22G U108A A117G | 0 |
| A18G A22G U122A | 1.31 |
| A18G A23G A51G U72C | 0.16 |
| A18G A23G A56G A68G | 0.96 |
| A18G A23G A64C | 1.07 |
| A18G A23G C35A U132C | 0 |
| A18G A23G G31C U108C U132C | 0.01 |

| Variant | self-cleavage |
| --- | --- |
| A18G A23G U37C A59G A118U U120C | 0.1 |
| A18G A23G U49C A86G A118U | 0.29 |
| A18G A24C A54U A90G | 1.22 |
| A18G A24G A30G A36U A55C U124C | 0.49 |
| A18G A24G A54G U57C A68G A129G | 0.44 |
| A18G A24G U38C A52G A78U A140U | 1.03 |
| A18G A24G U124C | 0.48 |
| A18G A24U A78U G99C A116G | 0.01 |
| A18G A24U U132C | 1.52 |
| A18G A27G A63G A114G A117G | 1.02 |
| A18G A27G A116U A118G | 0.07 |
| A18G A27G A117G | 2.04 |
| A18G A30G A52G A68G A89G | 2.23 |
| A18G A30G A56G | 0.95 |
| A18G A30G A90G U124A U131C | 0.65 |
| A18G A30G U43G U127C | 1.1 |
| A18G A30G U97C A110G | 0.12 |
| A18G A30G U102C | 1.3 |
| A18G A30U A91G | 1.92 |
| A18G A30U U122C | 1.21 |
| A18G A33G A36U A56G A111G | 0.05 |
| A18G A33G A51G A116U U120C | 0.1 |
| A18G A33G A55G U108C | 0.03 |
| A18G A33G U72C | 0.27 |

| Variant | self-cleavage |
| --- | --- |
| A18G A36C A52G A110G G115A | 0.02 |
| A18G A36G A66G U100C G104A | 0.09 |
| A18G A36G G44A | 1.11 |
| A18G A47C U70C C88U A110G | 0.13 |
| A18G A47G A82U | 0.27 |
| A18G A47U A78U U127C | 0.19 |
| A18G A47U U57C A62G A86G U103C | 0.19 |
| A18G A51G A140C | 1.56 |
| A18G A52G A63G U131A | 0.41 |
| A18G A52G A89G | 1.25 |
| A18G A52G A91G | 1.37 |
| A18G A52G A94U A116U | 0.57 |
| A18G A52G A116G | 0.86 |
| A18G A52G G53A A59U U102A G136U | 1.5 |
| A18G A52U A62G A134G | 1.42 |
| A18G A52U A63G | 1.87 |
| A18G A54G A67C | 1.81 |
| A18G A54G A78U A86G U127C | 0.11 |
| A18G A54G A82G U108A | 0 |
| A18G A54G U70G | 1.5 |
| A18G A54U A56G C85A | 0.47 |
| A18G A54U A62U U100A A110G U130C | 0.11 |
| A18G A54U A91G | 1.68 |
| A18G A55G A68G U133C | 1.69 |

| Variant | self-cleavage |
| --- | --- |
| A18G A55G A118G | 1.25 |
| A18G A55G U133C | 1.78 |
| A18G A56G A66G | 1.08 |
| A18G A56G U57C A95G U127C U139A | 1.81 |
| A18G A56G U132C | 1.73 |
| A18G A59G A125G | 0.73 |
| A18G A59G U132C | 2.39 |
| A18G A60G U122C U124C | 0.38 |
| A18G A60U A91C | 0.95 |
| A18G A62G A64G U72A A94U U131C | 0.17 |
| A18G A62G A125G | 0.44 |
| A18G A62G U108C | 0.01 |
| A18G A62U A67G A78G A86U A110G | 0.07 |
| A18G A62U U122C A134G | 0.67 |
| A18G A63G A64G | 1.04 |
| A18G A63G A67G A91G U108C | 0.07 |
| A18G A63G A78G A95U U133A | 0.23 |
| A18G A63G U130C | 2.05 |
| A18G A64G A135G | 1.18 |
| A18G A64G U70C | 0.61 |
| A18G A64U A92G A116G | 1.06 |
| A18G A64U U87A | 1.1 |
| A18G A66G A94G | 0.88 |
| A18G A66G A111G A118G | 0.01 |

| Variant | self-cleavage |
| --- | --- |
| A18G A66U A98G C101A U124C | 0.01 |
| A18G A67G A69G A89G A125G | 0.38 |
| A18G A67G A94G | 1.84 |
| A18G A67G A110G U131C | 0.26 |
| A18G A67G U100A | 0.59 |
| A18G A67G U130C | 1.04 |
| A18G A69G A96G | 0.45 |
| A18G A69G A96G A118G U131C | 0.72 |
| A18G A78C A95C A110G U139G | 0.06 |
| A18G A78G U87C U102C | 0.34 |
| A18G A78U A126G | 0.17 |
| A18G A78U U130A | 0.08 |
| A18G A82G A91G A92G | 0.46 |
| A18G A86G G123A | 1.81 |
| A18G A90G U100A A111G | 0.02 |
| A18G A92G A126G A140G | 0.44 |
| A18G A94C A118G U124A | 0.74 |
| A18G A94G C107A A126G | 0.01 |
| A18G A95G A135U | 1.75 |
| A18G A96G A129G | 0.81 |
| A18G A110G U131C | 0.05 |
| A18G A114G A118U | 0.08 |
| A18G A116G U120C | 0.47 |
| A18G A117G U131C | 1.34 |

| Variant | self-cleavage |
| --- | --- |
| A18G C32A A94G | 1.01 |
| A18G C45G U97C | 1.03 |
| A18G C45U U124A | 0.51 |
| A18G G20C U120C | 0.29 |
| A18G G20U A54G A89G U120A | 1.04 |
| A18G G29A A33U A78U A118G U133C | 0.42 |
| A18G G29C U103C | 2.08 |
| A18G G44U A78U A117G | 0.53 |
| A18G G80A A117G | 0.4 |
| A18G U19A A94G A114U | 0.07 |
| A18G U19A U37C U103C | 0.34 |
| A18G U19C U49A A63G U108A | 0.14 |
| A18G U19C U57C U124C | 0.63 |
| A18G U19C U102C | 1.17 |
| A18G U26A A63G | 0.43 |
| A18G U26C A56C U102C U124C | 1.44 |
| A18G U37A U87C | 1.11 |
| A18G U37C A52G A94G | 1.64 |
| A18G U37C A62G A66U | 0.51 |
| A18G U37C A66G A78U A96G | 0.18 |
| A18G U37C A89U A98G | 1.02 |
| A18G U37C C45U U87C | 1.08 |
| A18G U38C A90G A111G | 0.05 |
